Results published in publication PMC7679444.
No constants are given. Whether binding was seen depends on the method and setting. In cells and extracts the contact can be indirect. Some entries that bind do so weakly or less than the wild type. Where a sequence is shown, tags or fusion partners need not be part of it.

The chains behind the UniProt entries cited, without tags or fusion partners. Where a name states a change or a piece, a line headed by the entry shows the natural chain unless it says otherwise. Residues count along the entry.
GST-ΔWDD (ATG16L1 1–319) (Q676U5, residues 1-319): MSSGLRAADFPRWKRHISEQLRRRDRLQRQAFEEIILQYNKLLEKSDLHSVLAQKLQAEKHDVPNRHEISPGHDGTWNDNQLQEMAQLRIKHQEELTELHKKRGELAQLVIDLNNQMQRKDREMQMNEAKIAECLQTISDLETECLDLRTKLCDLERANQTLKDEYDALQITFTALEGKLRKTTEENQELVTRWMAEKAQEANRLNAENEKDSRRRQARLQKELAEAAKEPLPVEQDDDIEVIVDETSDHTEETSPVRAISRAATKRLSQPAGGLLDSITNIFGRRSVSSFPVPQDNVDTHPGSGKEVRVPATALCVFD
GST-WDD (ATG16L1 320–607) (Q676U5, residues 320-607): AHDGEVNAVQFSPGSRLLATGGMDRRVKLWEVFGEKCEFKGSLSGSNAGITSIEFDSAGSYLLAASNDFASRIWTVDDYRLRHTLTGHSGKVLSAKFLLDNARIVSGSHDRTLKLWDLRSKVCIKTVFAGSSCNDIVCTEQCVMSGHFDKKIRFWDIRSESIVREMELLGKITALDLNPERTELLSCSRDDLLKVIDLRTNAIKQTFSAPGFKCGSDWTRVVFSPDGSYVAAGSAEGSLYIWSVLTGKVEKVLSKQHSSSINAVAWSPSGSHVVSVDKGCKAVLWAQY

Experiments:
[1] = biological target: GST-WDD (ATG16L1 320–607) (human) (UniProt Q676U5); assay: co-IP; HEK-293T co-transfected with tagged receptor and GST-fused ATG16L1 fragment, lysed 36 h later (1% Igepal CA-630, diluted to 0,2%), GST precipitated with GSH-agarose beads, Western blot
[2] = biological target: GST-ΔWDD (ATG16L1 1–319) (human) (UniProt Q676U5); assay: as above

| binding [1] | binding [2] | Binder |
| --- | --- | --- |
| binds | no binding | IL-18R1, tagged (receptor, UniProt Q13478 19-541) AESCTSRPHITVVEGEPFYLKHCSCSLAHEIETTTKSWYKSSGSQEHVELNPRSSSRIALHDCVLEFWPVELNDTGSYFFQMKNYTQKWKLNVIRRNKHSCFTERQVTSKIVEVKKFFQITCENSYYQTLVNSTSLYKNCKKLLLENNKNPTIKKNAEFEDQGYYSCVHFLHHNGKLFNITKTFNITIVEDRSNIVPVLLGPKLNHVAVELGKNVRLNCSALLNEEDVIYWMFGEENGSDPNIHEEKEMRIMTPEGKWHASKVLRIENIGESNLNVLYNCTVASTGGTDTKSFILVRKADMADIPGHVFTRGMIIAVLILVAVVCLVTVCVIYRVDLVLFYRHLTRRDETLTDGKTYDAFVSYLKECRPENGEEHTFAVEILPRVLEKHFGYKLCIFERDVVPGGAVVDEIHSLIEKSRRLIIVLSKSYMSNEVRYELESGLHEALVERKIKIILIEFTPVTDFTFLPQSLKLLKSHRVLKWKADKSLSYNSRFWKNLLYLMPAKTVKPGRDEPEVLPVLSES |
| binds | no binding | IL-18RAP, tagged (receptor, UniProt O95256 20-599) FNISGCSTKKLLWTYSTRSEEEFVLFCDLPEPQKSHFCHRNRLSPKQVPEHLPFMGSNDLSDVQWYQQPSNGDPLEDIRKSYPHIIQDKCTLHFLTPGVNNSGSYICRPKMIKSPYDVACCVKMILEVKPQTNASCEYSASHKQDLLLGSTGSISCPSLSCQSDAQSPAVTWYKNGKLLSVERSNRIVVDEVYDYHQGTYVCDYTQSDTVSSWTVRAVVQVRTIVGDTKLKPDILDPVEDTLEVELGKPLTISCKARFGFERVFNPVIKWYIKDSDLEWEVSVPEAKSIKSTLKDEIIERNIILEKVTQRDLRRKFVCFVQNSIGNTTQSVQLKEKRGVVLLYILLGTIGTLVAVLAASALLYRHWIEIVLLYRTYQSKDQTLGDKKDFDAFVSYAKWSSFPSEATSSLSEEHLALSLFPDVLENKYGYSLCLLERDVAPGGVYAEDIVSIIKRSRRGIFILSPNYVNGPSIFELQAAVNLALDDQTLKLILIKFCYFQEPESLPHLVKKALRVLPTVTWRGLKSVPPNSRFWAKMRYHMPVKNSQGFTWNQLRITSRIFQWKGLSRTETTGRSSQPKEW |
